Measured values taken from paper PMC12136788.
Positions count from the first letter of the chain named. The list shows a part of the results.

B1: chr11:85008163:85008164:-_ENSMUSG00000018481_ENSMUST00000018625|mus_hu|FALSE|FALSE (ssRNA)
RNA: GGGAGUUCUACAGUCCGACGAUCAGCAUUUUCAUACUGAUUCAUGUCAUAAUUAUAUAAAGAAGCCAGAUGUCCCACUGAAAGGGCUACUUCAUAAUCUUCUUGACCAAGAAGUUGUUCUUUAAUCUGAAUUGCUUUGAUGUGCAACAGAGGAUUGAGCAUCA
B2: chr1:109605286:109605287:-_ENSG00000197780_ENST00000461096|hu_mus|hu_hu_hu_mus_True|38_98 (ssRNA)
RNA: GGGAGUUCUACAGUCCGACGAUCAAGUUUCAGAGUAUUCAGUGAUCACCUCUUUAAAUGCAAUUAUCCUUAUUAUAAGCUAAGCAGAAUAAUAAUUUAAUACAUAGAGUGAACUACACACAAAGCCUGAACCGCGAAAAUGGUCAACAGAGGAUUGAGCAUCA
B3: chr20:57486015:57486016:+_ENSG00000087460_ENST00000306090|hu_hu|motif|central (ssRNA)
RNA: GGGAGUUCUACAGUCCGACGAUCGUGGCCUUUUUUCCUUUUUCUGUAGGCCGCCUUAAGCUUUCUAAAUUUGGAACAUCGGAGCAAGCUGAAGGGAAAAGGGGGUUUCGCAAAAUCACUCGGGGGAAGGGAAAGGUUGCUUUGCAACAGAGGAUUGAGCAUCA
B4: 90162169_90162289_1694_CDS_ENSMUSG00000044783_ENSMUST00000054674|mouse|control|control (ssRNA)
RNA: GGGAGUUCUACAGUCCGACGAUCCCACACUGCCUUACCAGUAGGUUCAGAAUUGUGCUCUUGAAGGCCAGAGCUCAGCUGAGAAUGGCUGGGGCUCCGUGACGGGCUGCCCUCUGGAGAGGGACAGCUCCUUAGAAGACAGCUCAACAGAGGAUUGAGCAUCA
B5: chrX:71549400:71549401:+_ENSMUSG00000019087_ENSMUST00000019231|mus_hu|mus_mus_mus_hu_False|1_78 (ssRNA)
RNA: GGGAGUUCUACAGUCCGACGAUCGCAGUAGGAAGAGGGAAGCUCUUCAGUCCAGUGGUCACAAAACUGGGAAAGCAACAACACGGACACCGUCCCACCCUCAACCCCCCCACUGGCACAGGGUCACACAAUCUGGGAAGUGAUCAACAGAGGAUUGAGCAUCA
B6: chrX:71549400:71549401:+_ENSMUSG00000019087_ENSMUST00000019231|mus_hu|mus_mus_mus_hu_False|38_108 (ssRNA)
RNA: GGGAGUUCUACAGUCCGACGAUCGCAAGGAAGAGGAGGAAGCUCUUCAGUCCAGUGCGCUGCAGGGUGGGAAAGCAACAACACGGACACCGUCCCACCUCAAUUCCCCCCACUGGCACAGGGUCACACAAUCUGGGUCAAAGACAACAGAGGAUUGAGCAUCA
B7: chr14:103803487:103803488:+_ENSG00000100664_ENST00000558506|hu_mus|hu_hu_hu_mus_True|8_28 (ssRNA)
RNA: GGGAGUUCUACAGUCCGACGAUCGAGUUUAUGAUGUGUGUCAAGCAUGCCUCGGUACCCACAGGCUUUACAAGAAUUACCUAUUGUUUGCUUCUUUGGAUUGACAUGCAAAUCUGUUUCAGGAUUCUCACAUUCAGGACAGAGCAACAGAGGAUUGAGCAUCA
B8: 11916292_11920806_271_3pUTR_ENSMUSG00000022205_ENSMUST00000022816|mouse|control|control (ssRNA)
RNA: GGGAGUUCUACAGUCCGACGAUCAACACUGACAUAUCUCAUCUUUCCAAUCUGGAACAUGUUGUCAUCUCUGCUGCUGCUGCUCUGCUUGGAGGAUGCCAGUGCUCUAGAAGUCUCACCAGGCUUCUGCUUCUUCACGGGCUUCAACAGAGGAUUGAGCAUCA
B9: chr7:17149110:17149111:-_ENSMUSG00000058230_ENSMUST00000075845|mus_hu|motif|central (ssRNA)
RNA: GGGAGUUCUACAGUCCGACGAUCAAUAUCCAUGUAUACAGAUUCCUCCAGCCACUGGUAGAAAUCCUCAUUCAUAAUAAAACGGCGGGCCUCUUCCCAAGGCUUUCCGGGAGUUAUGAAAGGAGAAGUCUCCAGGUUUUCUUUCAACAGAGGAUUGAGCAUCA
B10: chr12:493273:493274:-_ENSG00000073614_ENST00000399788|hu_mus|hu_hu_hu_mus_False|88_108 (ssRNA)
RNA: GGGAGUUCUACAGUCCGACGAUCUUUUCUCUCUACCACAGGGAUCUUCAGAGUAGAUCCUUGAAGUUCCCAAAAUUUUGCCAGUUGAUCCAAGAAGUCCAAUCUUACUCUAGUCAUUGCCUCAAGUUCAUUCAGGCGCUGGACCAACAGAGGAUUGAGCAUCA
B11: chr4:184628046:184628047:+_ENSG00000168538_ENST00000334690|hu_hu|FALSE|FALSE (ssRNA)
RNA: GGGAGUUCUACAGUCCGACGAUCGAGACCUGAGAACAUGAAGGCAUCACUGGGCUCCACAGAAAUUUCUACAUCUUGAACUAAGUCGGUCUUAUUCUGUAGGUGAUACUUGACAGGUAACGACUCUCUGACACGCCCAAAUGACAACAGAGGAUUGAGCAUCA
B12: chr2:216981417:216981418:+_ENSG00000079246_ENST00000392132|hu_hu|hu_hu_hu_mus_True|18_28 (ssRNA)
RNA: GGGAGUUCUACAGUCCGACGAUCCUGAUACUGGUCCUUGCCAGCAAGGGCAUUAUCAGUGCCAUCUGUGCCAUAGAGGACUAACGCAAUCUCAUCUUUGCUCUCCGCAAACACCUGUCGCUGUACAAACAUAGUCAUCACUUUCAACAGAGGAUUGAGCAUCA
B13: chr7:7679991:7679992:-_ENSG00000106399_ENST00000396682|hu_mus|FALSE|FALSE (ssRNA)
RNA: GGGAGUUCUACAGUCCGACGAUCUGGGAUGAAUCUUUUCCAGCUUCCCCACGAAGCACACGGGCCGGUCGAUAUACUGUGGUAACAUGCUGGCGUUGACGCGCGCUUUGGGGAGCUGCAUUAUGUCCUCCAUGAUUCUGCCGCCAACAGAGGAUUGAGCAUCA
B14: chr1:39469031:39469032:+_ENSG00000174574_ENST00000432648|hu_mus|FALSE|FALSE (ssRNA)
RNA: GGGAGUUCUACAGUCCGACGAUCGUAUCGCCGCAUGAUCUGAUCAUGCGUGAAUUUCACAAACGAUUCAUACUGUUCUGCGAGUUUGGUACUGAGGAUUUGCUCAUACUCCUCUCGGACUUUAUCUUCAUAGUCUUUUAAGAGCAACAGAGGAUUGAGCAUCA
B15: chr4:115894766:115894767:+_ENSMUSG00000028698_ENSMUST00000030464|mus_hu|mus_mus_mus_hu_True|48_98 (ssRNA)
RNA: GGGAGUUCUACAGUCCGACGAUCUUCCACACGGAAAGUACUUGGGGGUUUUCCAACGGCCAGUACCAGUCCGGCCAAACUACCCGAUGAGGACAAGCCCCCUCUCUCCUACAGAACACAACAAAAUGCCCCCGAACUUUCAAGCAACAGAGGAUUGAGCAUCA
B16: chr1:60041781:60041782:+_ENSMUSG00000041040_ENSMUST00000036540|mus_hu|mus_mus_mus_hu_False|88_108 (ssRNA)
RNA: GGGAGUUCUACAGUCCGACGAUCAAGAGGAGUGAAUUAAAGUAAAUCAAAUUUAGUCAAAUUUUCUUUUAUUUUCCUUCACAAAAGAAAAUCUUUAUAACCCAGUCCUAGUCUUGGACAUAGUGAAAGCUAUAAAUUCUGACUCAACAGAGGAUUGAGCAUCA
B17: chr2:202488911:202488912:-_ENSG00000155755_ENST00000286196|hu_mus|hu_hu_hu_mus_False|18_108 (ssRNA)
RNA: GGGAGUUCUACAGUCCGACGAUCAUUUAACAUUUUUUCAUAAUCUCCAGUAGCAUUUCAGCAUUAUGUAACAAAAGCUCAAUUGUAAAUACAUGUAUCUUAUAAAAAUACACUUAAAUUUAAAAACGGGGAGCGCAGGCGCCACAACAGAGGAUUGAGCAUCA
B18: chr6:38652254:38652255:-_ENSG00000124767_ENST00000373365|hu_hu|hu_hu_hu_mus_False|8_68 (ssRNA)
RNA: GGGAGUUCUACAGUCCGACGAUCCGAGAACUUCAUAGCAGGGAAGUCAAGCUUCUGCAGGAGGGUCAUUCCAAGAACCCUCGUAUAAAAAUCCAGGGACUUCUUAGGAUCCUUAAUUCUUAGCAUCGUCUGCUGCAGUAGAAACAACAGAGGAUUGAGCAUCA
B19: chr1:244855233:244855234:+_ENSG00000121644_ENST00000302550|hu_mus|hu_hu_hu_mus_True|48_58 (ssRNA)
RNA: GGGAGUUCUACAGUCCGACGAUCCAUCAGAUGGUAGGCGUUGCCCUUAUACUCUUUCCCCAGUUCUUCUACAAUUUUUUCUAUAUCAUCUUCUAGGAAGUCCGUACUUCCUAGAACAACAGCUUCUUUAAAUUUAAAUGUUUCCAACAGAGGAUUGAGCAUCA
B20: chr2:216981417:216981418:+_ENSG00000079246_ENST00000392132|hu_hu|hu_hu_hu_mus_True|38_38 (ssRNA)
RNA: B12 RNA with C100U, C105A, C107A, C111U, C120U, U123G
B21: chr8:21939936:21939937:+_ENSG00000158856_ENST00000443491|hu_hu|FALSE|FALSE (ssRNA)
RNA: GGGAGUUCUACAGUCCGACGAUCCCCCCAGCAUGGUCACACACACAGUGGAAAGGGAUGUCAGGGUCUGGGCAGGAGCAAUACCCAGACCUGGGCAAAAAUAUAGAUAUCAUUAUAUACACACGUGGACUGGAAAGAAGUCAACAACAGAGGAUUGAGCAUCA
B22: chr12:85018817:85018818:+_ENSMUSG00000010608_ENSMUST00000048155|mus_mus|FALSE|FALSE (ssRNA)
RNA: GGGAGUUCUACAGUCCGACGAUCUUCUGCUUCUUCAUCUAGUACCAUGGCAACAUCAUCUAAAAUGCUCUGUGGUGAACUAUGUGCCAUAACCUUAGAGCAAACAAAAUCAACUAAUGUAGCUUCUUCUUCACCUAUGUAUUCCAACAGAGGAUUGAGCAUCA

Target: T1, UNK ZnF1-3 (human, UniProt Q9C0B0 31-174)
T1 sequence: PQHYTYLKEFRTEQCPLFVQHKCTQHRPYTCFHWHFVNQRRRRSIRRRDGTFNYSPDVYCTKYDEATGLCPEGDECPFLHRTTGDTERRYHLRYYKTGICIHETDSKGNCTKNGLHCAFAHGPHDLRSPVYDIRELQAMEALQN
Assay: nsRBNS (natural sequence RNA bind-n-seq); RBNS binding buffer (assumed for nsRBNS): 25 mM Tris pH 7.5, 150 mM KCl, 3 mM MgCl2, 0.01% Triton X-100, 500 ug/ml BSA, 20 U/ml SUPERase-In, 4 C; UNK is unkempt and MSI1 is Musashi-1; names of the RNAs are library labels; protein concentration not given here; high values mean tight binding

Binder | binding signal [enrichment R]
B1 | 1.68
B2 | 0.904
B3 | 1.55
B4 | 0.899
B5 | 1.47
B6 | 1.44
B7 | 1.33
B8 | 0.575
B9 | 0.87
B10 | 0.99
B11 | 1.13
B12 | 0.811
B13 | 0.477
B14 | 0.53
B15 | 0.956
B16 | 0.656
B17 | 2
B18 | 0.692
B19 | 1.32
B20 | 0.612
B21 | 2.23
B22 | 1.2
